Results reported in the supplement of paper PMC10126150.
Values marked as one replicate rest on one cluster of the flow cell; about a third of the high ones do not repeat.

Tested on: ATP
Assay: switch fluorescence ratio, 500 uM ATP over buffer (Cy3 cluster intensity, sum of 5 cycles each) (fold (ratio)); higher = stronger signal-on switching upon ATP binding; sequences stand for … in TCGTCGGCAGCGTCAGATGTGTATAAGAGACAGTTTTTTTTTTTTTTTTTTTTTTTTT…TC
Conditions: aptamer strand: ATP DNA aptamer (quencher-CACCTGGGGGAGTATTGCGGAGGAAGG + anchor), 100 nM annealed; ATP concentration: 500 uM; one replicate
Method in brief: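 The quencher-labelled ATP aptamer, at 100 nM, was annealed to Cy3-labelled switching-strand clusters on a modified Illumina MiSeq flow-cell. The clusters were imaged in selection buffer, then after 15 min with 500 uM ATP at 22 °C, and this buffer/ATP cycle ran five times with NaOH stripping and re-annealing between runs. Per-cluster fluorescence ratios, summed target-cycle over summed buffer-cycle Cy3 intensity, were averaged per switch-domain sequence. Clusters outside 100-1000 RFU were excluded.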
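Also: ATP exposure 15 min at 22 °C before imaging.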

In the case of AACAGGGAGA, the switch fluorescence ratio was 1.03.
CGCAAAGGCC was tested, and the switch fluorescence ratio was 1.69.
Sequence GGACGTTCTC has a switch fluorescence ratio of 1.04.
AGGCTACACA was tested, and the switch fluorescence ratio was 1.01.
In the case of CTTATCGATA, the switch fluorescence ratio was 1.02.
Work on GCAGGGATAG yielded a switch fluorescence ratio of 1.09.
In the case of AAGCCAAGGA, the switch fluorescence ratio was 0.982.
With CCCTCTTAAT the switch fluorescence ratio was 0.977.
Sequence TTTCACATTA has a switch fluorescence ratio of 0.948.
CCAAGGGCAG gave a switch fluorescence ratio of 1.05.
Work on TCAACCGTGC yielded a switch fluorescence ratio of 1.56.
TAGTCATCT showed a switch fluorescence ratio of 1.05.
GCATGATCTG showed a switch fluorescence ratio of 1.01.
With GCCTGTTACT the switch fluorescence ratio was 1.02.
With CATGTTCACG the switch fluorescence ratio was 1.04.
ATTCACGTAA was tested, and the switch fluorescence ratio was 1.36.
With GCGCTGTTCA the switch fluorescence ratio was 1.07.
In the case of TTCGAAGTAG, the switch fluorescence ratio was 1.05.
Sequence GACAAATATA has a switch fluorescence ratio of 1.01.
Work on CTTGTTCAAC yielded a switch fluorescence ratio of 1.02.
For GGGTTCGG, the switch fluorescence ratio was 1.01.
CTTATAATGA gave a switch fluorescence ratio of 0.995.
CGTAGAAGAT showed a switch fluorescence ratio of 0.961.
With ATGTTCCTGC the switch fluorescence ratio was 0.974.
TATCTCTAAA gave a switch fluorescence ratio of 1.02.
With GAAGTCCCGG the switch fluorescence ratio was 1.03.
ATTAGTAACT was tested, and the switch fluorescence ratio was 1.04.
TGATGCAAC gave a switch fluorescence ratio of 1.41.
With TAATCATTAA the switch fluorescence ratio was 0.955.
CTCCTATAG was tested, and the switch fluorescence ratio was 1.53.
Work on GCTACTCAAC yielded a switch fluorescence ratio of 2.08.
For CGCTATCAGG, the switch fluorescence ratio was 1.08.
Work on GGATCCTAGG yielded a switch fluorescence ratio of 1.01.
In the case of GCACTGATAT, the switch fluorescence ratio was 1.06.
In the case of CAGGGGGCGG, the switch fluorescence ratio was 0.966.
CGAAATATAG gave a switch fluorescence ratio of 0.994.
TGGGCTTGAC was tested, and the switch fluorescence ratio was 1.37.
AAGTCTGTCA gave a switch fluorescence ratio of 0.99.
TCCTGTGGTA gave a switch fluorescence ratio of 1.
AGCACTAGAC was tested, and the switch fluorescence ratio was 1.47.
CTGAGCAGAT gave a switch fluorescence ratio of 1.67.
Sequence TTCTAACGGT has a switch fluorescence ratio of 0.985.
With AACACTTGTG the switch fluorescence ratio was 1.05.
For TGTGGCTGTT, the switch fluorescence ratio was 0.974.
With ATTATATACT the switch fluorescence ratio was 1.03.
With AGCGAGCTTT the switch fluorescence ratio was 0.978.
ATCATTATTC gave a switch fluorescence ratio of 0.956.
AGTAAACAAG was tested, and the switch fluorescence ratio was 1.02.
GCTCCCCGTC was tested, and the switch fluorescence ratio was 1.17.
For GCCATCCCAA, the switch fluorescence ratio was 1.53.
In the case of CTAGCATTGA, the switch fluorescence ratio was 1.01.
For TGTCAACAGT, the switch fluorescence ratio was 0.992.
For CCCTATATTT, the switch fluorescence ratio was 1.03.
ACACTCATGC was tested, and the switch fluorescence ratio was 1.05.
Sequence GCACTGGGTA has a switch fluorescence ratio of 1.01.
With CTATGGAGGT the switch fluorescence ratio was 0.982.
Sequence TGCACGCCGG has a switch fluorescence ratio of 1.06.
Sequence AAAAGTCACG has a switch fluorescence ratio of 1.03.
TAAGATGTTC showed a switch fluorescence ratio of 0.997.
For AAGTTTGGCG, the switch fluorescence ratio was 1.18.
In the case of TCTCGTTATG, the switch fluorescence ratio was 0.992.
With CTAATTTTGG the switch fluorescence ratio was 1.
With CGAATTCAAG the switch fluorescence ratio was 0.962.
In the case of ATGATAGACC, the switch fluorescence ratio was 1.05.
TTCCTACAAT showed a switch fluorescence ratio of 1.21.
With TATTAAACCC the switch fluorescence ratio was 1.08.
In the case of TGAATATGGC, the switch fluorescence ratio was 1.
In the case of TGCCCGTCAG, the switch fluorescence ratio was 0.992.
Work on TTCGTTGATT yielded a switch fluorescence ratio of 0.964.
Sequence ACGCGGCCTA has a switch fluorescence ratio of 1.01.
Work on TTCCCATGGA yielded a switch fluorescence ratio of 0.966.
TACATATAGC was tested, and the switch fluorescence ratio was 1.07.
With CAGCAAGCTG the switch fluorescence ratio was 1.05.
In the case of CGCTAATACA, the switch fluorescence ratio was 5.43.
CTTTGCACTT was tested, and the switch fluorescence ratio was 1.07.
With CATGCCATGT the switch fluorescence ratio was 0.993.
For GCATCGTCGT, the switch fluorescence ratio was 0.964.
Sequence AAGAACGAAG has a switch fluorescence ratio of 0.941.
In the case of AATAACGGAG, the switch fluorescence ratio was 0.957.
For GTTCGCTGGA, the switch fluorescence ratio was 1.
TATGGATGGA gave a switch fluorescence ratio of 1.03.
GGGAATTGTA showed a switch fluorescence ratio of 1.02.
GAGGATTTT was tested, and the switch fluorescence ratio was 0.953.
ATTGGAGAAC gave a switch fluorescence ratio of 1.02.
Work on GGATGTAGCC yielded a switch fluorescence ratio of 1.01.
CGTGGCTTAA was tested, and the switch fluorescence ratio was 1.02.
CCACCTTGGT showed a switch fluorescence ratio of 1.06.
Work on ATTTAGGGAA yielded a switch fluorescence ratio of 1.04.
For GTTAATGACC, the switch fluorescence ratio was 1.02.
For CTGTTACTG, the switch fluorescence ratio was 0.971.
In the case of GTTAGAACCA, the switch fluorescence ratio was 0.968.
ATTGGTGATC showed a switch fluorescence ratio of 0.996.
TCCTTCATGT was tested, and the switch fluorescence ratio was 0.985.
GAACTTTCAG was tested, and the switch fluorescence ratio was 0.997.
With TATGTCCTG the switch fluorescence ratio was 0.997.
For CCCGTTATGG, the switch fluorescence ratio was 1.05.
In the case of AGTACTTCGG, the switch fluorescence ratio was 1.01.
Work on CTTTTTGAGT yielded a switch fluorescence ratio of 1.
For TTGAAAGAGT, the switch fluorescence ratio was 0.996.
TATTTGCTGC was tested, and the switch fluorescence ratio was 0.914.
GGATCGATCG was tested, and the switch fluorescence ratio was 1.
With TCTTAACATG the switch fluorescence ratio was 0.956.
In the case of ATCGGTAAAA, the switch fluorescence ratio was 1.
Work on GCTACGTATA yielded a switch fluorescence ratio of 1.65.
In the case of CTGAGTTCAA, the switch fluorescence ratio was 1.03.
Work on CACCAGCACG yielded a switch fluorescence ratio of 1.16.
Work on CACTAAAGT yielded a switch fluorescence ratio of 0.996.
Sequence CTGCGTTAAT has a switch fluorescence ratio of 1.06.
TGGTGCTCG gave a switch fluorescence ratio of 0.956.
AAGAGGGAAT showed a switch fluorescence ratio of 1.
With TTGGCGGTAT the switch fluorescence ratio was 1.02.
ATTCTCGGGT gave a switch fluorescence ratio of 0.987.
TTTGACATGA was tested, and the switch fluorescence ratio was 1.05.
TACAATAAGG gave a switch fluorescence ratio of 1.05.
With TGGCACGGGG the switch fluorescence ratio was 1.02.
Work on AATGTATACC yielded a switch fluorescence ratio of 1.02.
GAATAAGAC showed a switch fluorescence ratio of 1.02.
Sequence TCGACAGTGT has a switch fluorescence ratio of 0.967.
GCGTTTGCGA was tested, and the switch fluorescence ratio was 1.02.
For CGTGGAAAAG, the switch fluorescence ratio was 0.997.
TCGAAGTTGG gave a switch fluorescence ratio of 1.
Work on CTTTAGGATT yielded a switch fluorescence ratio of 0.978.
CGGTTTGCGA was tested, and the switch fluorescence ratio was 0.937.
GGCAATGTT was tested, and the switch fluorescence ratio was 1.06.
With GGCCGGGGAA the switch fluorescence ratio was 1.04.
In the case of CGGTGAAAGT, the switch fluorescence ratio was 0.984.
For TTAGAGGTGG, the switch fluorescence ratio was 1.01.
TCCTCACGCT was tested, and the switch fluorescence ratio was 5.06.
TATCGGCTTG was tested, and the switch fluorescence ratio was 1.02.
TTTAGCTTAC showed a switch fluorescence ratio of 1.55.
Work on AAATGGACTT yielded a switch fluorescence ratio of 0.939.
ATAAAATCTT was tested, and the switch fluorescence ratio was 0.998.
Sequence ATGGGATTCG has a switch fluorescence ratio of 1.03.
In the case of TTTATCCCCG, the switch fluorescence ratio was 0.999.
Work on GTGCTAAACG yielded a switch fluorescence ratio of 0.978.
For GGAATATTAT, the switch fluorescence ratio was 0.969.
In the case of GGGAGATGG, the switch fluorescence ratio was 1.05.
CTGTTGTCC was tested, and the switch fluorescence ratio was 0.981.
With GGTTCGGTGG the switch fluorescence ratio was 1.08.
In the case of TCGGGTGCTA, the switch fluorescence ratio was 1.03.
GCCTTTCAAA showed a switch fluorescence ratio of 0.952.
CTATACCTTT gave a switch fluorescence ratio of 0.988.
TCACGTAGCT gave a switch fluorescence ratio of 1.29.
AAAATATGCG gave a switch fluorescence ratio of 0.963.
Work on ACTAGTTCGT yielded a switch fluorescence ratio of 1.
For GACGGGTACT, the switch fluorescence ratio was 1.12.
Sequence AACGGCTCGG has a switch fluorescence ratio of 0.979.
GCACCGCTTT gave a switch fluorescence ratio of 1.08.
With TAAGTCTGT the switch fluorescence ratio was 1.01.
Sequence TAAAGGTAC has a switch fluorescence ratio of 1.09.
GGAGGTACGG showed a switch fluorescence ratio of 1.02.
With CGGCACGTAG the switch fluorescence ratio was 1.07.
GGCGACGCCC was tested, and the switch fluorescence ratio was 1.07.
ATGACGTATG showed a switch fluorescence ratio of 0.992.
In the case of GAAGGCGCTG, the switch fluorescence ratio was 0.982.
Work on TTGGTTAATT yielded a switch fluorescence ratio of 1.03.
Sequence CTCCGAACAG has a switch fluorescence ratio of 2.69.
